The other results are listed elsewhere or left out.
Assays:
Assay in all cases: glycan array binding signal (z-score within array); higher = stronger binding
Details in all cases: glycan notation: IUPAC condensed, linker removed
[1] = molecular target: Neu5Ac(a2-3)Gal(b1-4)GlcNAc(b1-6)GalNAc
Outline: (§1)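 Columns mapping to the same glycan were averaged after glycan names were converted to IUPAC-condensed notation. The data come from 3228 arrays in the Consortium for Functional Glycomics database, limited to those with an available protein sequence. Binding is reported as a within-array Z-score averaged across arrays of one protein sequence and across linkers.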

[2] = molecular target: Neu5Ac(a2-3)Gal(b1-4)GlcNAc(b1-6)[Gal(b1-3)]GalNAc
Outline: as §1

[3] = molecular target: Neu5Ac(a2-3)Gal(b1-4)GlcNAc(b1-6)[Neu5Ac(a2-3)Gal(b1-3)]GalNAc
Outline: as §1

[4] = molecular target: Neu5Ac(a2-3)Gal(b1-4)GlcNAc6S
Outline: as §1

[5] = molecular target: Neu5Ac(a2-3)Gal(b1-4)[Fuc(a1-3)]GlcNAc
Outline: as §1

[6] = molecular target: Neu5Ac(a2-3)Gal(b1-4)[Fuc(a1-3)]GlcNAc(b1-2)Man
Outline: as §1

[7] = molecular target: Neu5Ac(a2-3)Gal(b1-4)[Fuc(a1-3)]GlcNAc(b1-3)Gal
Outline: as §1

[8] = molecular target: Neu5Ac(a2-3)Gal(b1-4)[Fuc(a1-3)]GlcNAc(b1-3)Gal(b1-4)GlcNAc
Outline: as §1

[9] = molecular target: Neu5Ac(a2-3)Gal(b1-4)[Fuc(a1-3)]GlcNAc(b1-3)Gal(b1-4)[Fuc(a1-3)]GlcNAc(b1-3)Gal(b1-4)[Fuc(a1-3)]GlcNAc
Outline: as §1

[10] = molecular target: Neu5Ac(a2-3)Gal(b1-4)[Fuc(a1-3)]GlcNAc(b1-3)GalNAc
Outline: as §1

[11] = molecular target: Neu5Ac(a2-3)Gal(b1-4)[Fuc(a1-3)]GlcNAc(b1-6)[Gal(b1-3)]GalNAc
Outline: as §1

[12] = molecular target: Neu5Ac(a2-3)Gal(b1-4)[Fuc(a1-3)]GlcNAc(b1-6)[Neu5Ac(a2-3)Gal(b1-3)]GalNAc
Outline: as §1

[13] = molecular target: Neu5Ac(a2-3)Gal(b1-4)[Fuc(a1-3)]GlcNAc6S
Outline: as §1

[14] = molecular target: Neu5Ac(a2-3)Gal6S(b1-4)GlcNAc
Outline: as §1

[15] = molecular target: Neu5Ac(a2-3)Gal6S(b1-4)[Fuc(a1-3)]GlcNAc
Outline: as §1

Neu5Ac(a2-3)GalNAc = molecular target: Neu5Ac(a2-3)GalNAc
Outline: as §1

[16] = molecular target: Neu5Ac(a2-3)GalNAc(b1-4)GlcNAc
Outline: as §1

[17] = molecular target: Neu5Ac(a2-3)[GalNAc(b1-4)]Gal(b1-4)Glc
Outline: as §1

[18] = molecular target: Neu5Ac(a2-3)[GalNAc(b1-4)]Gal(b1-4)GlcNAc
Outline: as §1

[19] = molecular target: Neu5Ac(a2-3)[GalNAc(b1-4)]Gal(b1-4)GlcNAc(b1-3)GalNAc
Outline: as §1

[20] = molecular target: Neu5Ac(a2-3)[Neu5Ac(a2-6)]GalNAc
Outline: as §1

Neu5Ac(a2-6)Gal = molecular target: Neu5Ac(a2-6)Gal
Outline: as §1

[21] = molecular target: Neu5Ac(a2-6)Gal(b1-3)GlcNAc(b1-3)[Gal(b1-4)GlcNAc(b1-6)]Gal(b1-4)Glc
Outline: as §1

Neu5Ac(a2-6)Gal(b1-4)Glc = molecular target: Neu5Ac(a2-6)Gal(b1-4)Glc
Outline: as §1

[22] = molecular target: Neu5Ac(a2-6)Gal(b1-4)GlcNAc
Outline: as §1

[23] = molecular target: Neu5Ac(a2-6)Gal(b1-4)GlcNAc(b1-2)Man
Outline: as §1

[24] = molecular target: Neu5Ac(a2-6)Gal(b1-4)GlcNAc(b1-2)Man(a1-3)Man(b1-4)GlcNAc(b1-4)GlcNAc
Outline: as §1

[25] = molecular target: Neu5Ac(a2-6)Gal(b1-4)GlcNAc(b1-2)Man(a1-3)[Gal(b1-4)GlcNAc(b1-2)Man(a1-6)]Man(b1-4)GlcNAc(b1-4)GlcNAc
Outline: as §1

[26] = molecular target: Neu5Ac(a2-6)Gal(b1-4)GlcNAc(b1-2)Man(a1-3)[GlcNAc(b1-2)Man(a1-6)]Man(b1-4)GlcNAc(b1-4)GlcNAc
Outline: as §1

[27] = molecular target: Neu5Ac(a2-6)Gal(b1-4)GlcNAc(b1-2)Man(a1-3)[GlcNAc(b1-4)][Neu5Ac(a2-6)Gal(b1-4)GlcNAc(b1-2)Man(a1-6)]Man(b1-4)GlcNAc(b1-4)GlcNAc
Outline: as §1

[28] = molecular target: Neu5Ac(a2-6)Gal(b1-4)GlcNAc(b1-2)Man(a1-3)[Man(a1-6)]Man(b1-4)GlcNAc(b1-4)GlcNAc
Outline: as §1

[29] = molecular target: Neu5Ac(a2-6)Gal(b1-4)GlcNAc(b1-2)Man(a1-3)[Neu5Ac(a2-3)Gal(b1-4)GlcNAc(b1-2)Man(a1-6)]Man(b1-4)GlcNAc(b1-4)GlcNAc
Outline: as §1

[30] = molecular target: Neu5Ac(a2-6)Gal(b1-4)GlcNAc(b1-2)Man(a1-3)[Neu5Ac(a2-6)Gal(b1-4)GlcNAc(b1-2)Man(a1-6)]Man(b1-4)GlcNAc(b1-4)GlcNAc
Outline: as §1

[31] = molecular target: Neu5Ac(a2-6)Gal(b1-4)GlcNAc(b1-2)Man(a1-3)[Neu5Ac(a2-6)Gal(b1-4)GlcNAc(b1-2)Man(a1-6)]Man(b1-4)GlcNAc(b1-4)[Fuc(a1-6)]GlcNAc
Outline: as §1

[32] = molecular target: Neu5Ac(a2-6)Gal(b1-4)GlcNAc(b1-2)Man(a1-6)Man(b1-4)GlcNAc(b1-4)GlcNAc
Outline: as §1

[33] = molecular target: Neu5Ac(a2-6)Gal(b1-4)GlcNAc(b1-2)Man(a1-6)[Gal(b1-4)GlcNAc(b1-2)Man(a1-3)]Man(b1-4)GlcNAc(b1-4)GlcNAc
Outline: as §1

[34] = molecular target: Neu5Ac(a2-6)Gal(b1-4)GlcNAc(b1-2)Man(a1-6)[GlcNAc(b1-2)Man(a1-3)]Man(b1-4)GlcNAc(b1-4)GlcNAc
Outline: as §1

[35] = molecular target: Neu5Ac(a2-6)Gal(b1-4)GlcNAc(b1-2)Man(a1-6)[Man(a1-3)]Man(b1-4)GlcNAc(b1-4)GlcNAc
Outline: as §1

[36] = molecular target: Neu5Ac(a2-6)Gal(b1-4)GlcNAc(b1-2)[Neu5Ac(a2-6)Gal(b1-4)GlcNAc(b1-4)]Man(a1-3)[GlcNAc(b1-4)][Neu5Ac(a2-6)Gal(b1-4)GlcNAc(b1-2)[Neu5Ac(a2-6)Gal(b1-4)GlcNAc(b1-6)]Man(a1-6)]Man(b1-4)GlcNAc(b1-4)GlcNAc
Outline: as §1

[37] = molecular target: Neu5Ac(a2-6)Gal(b1-4)GlcNAc(b1-2)[Neu5Ac(a2-6)Gal(b1-4)GlcNAc(b1-4)]Man(a1-3)[GlcNAc(b1-4)][Neu5Ac(a2-6)Gal(b1-4)GlcNAc(b1-4)Man(a1-6)]Man(b1-4)GlcNAc(b1-4)GlcNAc
Outline: as §1

[38] = molecular target: Neu5Ac(a2-6)Gal(b1-4)GlcNAc(b1-2)[Neu5Ac(a2-6)Gal(b1-4)GlcNAc(b1-6)]Man(a1-6)[Neu5Ac(a2-6)Gal(b1-4)GlcNAc(b1-2)Man(a1-3)][GlcNAc(b1-4)]Man(b1-4)GlcNAc(b1-4)GlcNAc
Outline: as §1

[39] = molecular target: Neu5Ac(a2-6)Gal(b1-4)GlcNAc(b1-3)Gal(b1-3)GlcNAc
Outline: as §1

[40] = molecular target: Neu5Ac(a2-6)Gal(b1-4)GlcNAc(b1-3)Gal(b1-4)GlcNAc
Outline: as §1

[41] = molecular target: Neu5Ac(a2-6)Gal(b1-4)GlcNAc(b1-3)Gal(b1-4)GlcNAc(b1-2)Man(a1-3)[Neu5Ac(a2-6)Gal(b1-4)GlcNAc(b1-3)Gal(b1-4)GlcNAc(b1-2)Man(a1-6)]GalNAc
Outline: as §1

[42] = molecular target: Neu5Ac(a2-6)Gal(b1-4)GlcNAc(b1-3)Gal(b1-4)GlcNAc(b1-3)Gal(b1-4)GlcNAc
Outline: as §1

[43] = molecular target: Neu5Ac(a2-6)Gal(b1-4)GlcNAc(b1-3)Gal(b1-4)GlcNAc(b1-3)Gal(b1-4)GlcNAc(b1-2)Man(a1-3)[Neu5Ac(a2-6)Gal(b1-4)GlcNAc(b1-3)Gal(b1-4)GlcNAc(b1-3)Gal(b1-4)GlcNAc(b1-2)Man(a1-6)]GalNAc
Outline: as §1

B1: PX14367A-bth-493-35-493 (Bacteroides thetaiotaomicron) (protein)
chain: VSSDQVAVAGNAERLFNGAWYNLFEYGTTYANIGYRALQCQDDMMASDVVSRPKYGFNSSYQFNDVAIPSDGRTSFAWYLIYKTIDNCNTAISIKGDSEELRQAQGQALALRAFCYLHLVQHYQFTYLKDKDAPCVPIYTEPTTSGTKPKGKSTVAQVYQQIFDDLNLAQDYLTNYVRKGDGQKFKPNTDVVNGLMARAYLLTGQWGEAAKAAEAARKGYSLMTTTAEYEGFNNISNKEWIWGSPQTLSQSDASYNFYYLDATYVGAYSSFMADPHLMDTFVKGDIRLPLFQWMREGYLGYKKFHMRSDDTADLVLMRSAEMYLIEAEAKVRDGVALDQAVAPLNTLRTARGVGNYDVTGKTKEQVIDEILMERRRELWGEGFGITDVLRNQKAVERMALSEDMQKTEVDCWQEGGSFAKRNPLGHWFLNFPDGKAFSANSSYYLYAIPEKEINANPNL
glycan array binding signal (z-score) [1]: -0.497
glycan array binding signal (z-score) [2]: -0.625
glycan array binding signal (z-score) [3]: -0.218
glycan array binding signal (z-score) [4]: -0.316
glycan array binding signal (z-score) [5]: -0.663
glycan array binding signal (z-score) [6]: -0.443
glycan array binding signal (z-score) [7]: -0.347
glycan array binding signal (z-score) [8]: -0.21
glycan array binding signal (z-score) [9]: 0.154
glycan array binding signal (z-score) [10]: 0.004
glycan array binding signal (z-score) [11]: -0.22
glycan array binding signal (z-score) [12]: 0.509
glycan array binding signal (z-score) [13]: -0.473
glycan array binding signal (z-score) [14]: -0.419
glycan array binding signal (z-score) [15]: -0.209
glycan array binding signal (z-score) (Neu5Ac(a2-3)GalNAc): -0.054
glycan array binding signal (z-score) [16]: -0.062
glycan array binding signal (z-score) [17]: -0.325
glycan array binding signal (z-score) [18]: -0.396
glycan array binding signal (z-score) [19]: -0.469
glycan array binding signal (z-score) [20]: -0.098
glycan array binding signal (z-score) (Neu5Ac(a2-6)Gal): -0.437
glycan array binding signal (z-score) [21]: -0.367
glycan array binding signal (z-score) (Neu5Ac(a2-6)Gal(b1-4)Glc): -0.325
glycan array binding signal (z-score) [22]: -0.067
glycan array binding signal (z-score) [23]: -0.44
glycan array binding signal (z-score) [24]: -0.021
glycan array binding signal (z-score) [25]: -0.047
glycan array binding signal (z-score) [26]: -0.512
glycan array binding signal (z-score) [27]: -0.352
glycan array binding signal (z-score) [28]: 0.504
glycan array binding signal (z-score) [29]: 0.54
glycan array binding signal (z-score) [30]: -0.142
glycan array binding signal (z-score) [31]: 0.022
glycan array binding signal (z-score) [32]: -0.566
glycan array binding signal (z-score) [33]: -0.724
glycan array binding signal (z-score) [34]: -0.282
glycan array binding signal (z-score) [35]: -0.192
glycan array binding signal (z-score) [36]: 0.243
glycan array binding signal (z-score) [37]: -0.361
glycan array binding signal (z-score) [38]: -0.162
glycan array binding signal (z-score) [39]: 0.04
glycan array binding signal (z-score) [40]: -0.002
glycan array binding signal (z-score) [41]: 6.47
glycan array binding signal (z-score) [42]: -0.061
glycan array binding signal (z-score) [43]: 1.84
